Test results as given in the supplement of paper PMC12230231.
± gives the standard deviation of the averaged measurements. Restriction of a single-cycle SIVsab GFP reporter by TRIM5α v1-loop variants in CRFK cells. Human variants: read share among cells still uninfected after two challenges over input, higher = gained restriction. Rhesus variants: share among infected cells over input, higher = lost restriction. Reporter dose not given per row. No active / inactive call per row; the paper calls a change when both replicates lie above its controls (mean + 2 SD of stop or wild-type variants, or the top frameshift score). Residues outside the varied loop are taken from Swiss-Prot. The paper reads the human single-substitution scores as noise; they and the rhesus combinations repeat poorly (rank correlation 0.3 to 0.4), indel scores repeat only for the top variants, rhesus substitutions well (0.9).

tested on: SIVsab (simian immunodeficiency virus of sabaeus monkeys), single-cycle GFP reporter, in CRFK cells; assay: enrichment among infected cells over input (fold); higher = weaker restriction; settings: library: human / rhesus combinations
Procedure: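 Pools of CRFK cells expressing variants of the TRIM5α v1 loop were challenged with the single-cycle reporter, sorted by GFP and sequenced; mean of two replicates.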

**Q.** For “MASGILLNVKEEVTCPICLELLTEPLSLHCGHSFCQACITANHKKSMLYKEGERSCPVCRISYQPENIQPNRHVANIVEKLREVKLSPEEGQKVDHCARHGEKLLLFCQEDSKVICWLCERSQEHRGHHTFLMEEVAQEYHVKLQTALEMLRQKQQEAEKLEADIREEKASWKIQIDYDKTNVSADFEQLREILDWEESNELQNLEKEEEDILKSLTKSETEMVQQTQYMRELISELEHRLQGSMMDLLQGVDGIIKRIENMTLKKPKTFHKNQRRVFRAPDLKGMLDMFRELTDARRYWVDVTLAPNNISHAVIAEDKRQVSSRNPQIMYGAPGTLYTFPTLVNFNYCTGVLGSQSITSGKHYWEVDVSKKSAWILGVCAGFQSDAMYNIEQNENYQPKYGYWVIGLQEGVKYSVFQDGSSHTPFAPFIVPLSVIICPDRVGVFVDYEACTVSFFNITNHGFLIYKFSQCSFSKPVFPYLNPRKCTVPMTLCSPSS [rhesus TRIM5α, 332-344 = GAPGTLYTFPTLV]”, which enrichment is on record?
**A.** 1.47 ± 0.38

**Q.** With “MASGILLNVKEEVTCPICLELLTEPLSLHCGHSFCQACITANHKKSMLYKEGERSCPVCRISYQPENIQPNRHVANIVEKLREVKLSPEEGQKVDHCARHGEKLLLFCQEDSKVICWLCERSQEHRGHHTFLMEEVAQEYHVKLQTALEMLRQKQQEAEKLEADIREEKASWKIQIDYDKTNVSADFEQLREILDWEESNELQNLEKEEEDILKSLTKSETEMVQQTQYMRELISELEHRLQGSMMDLLQGVDGIIKRIENMTLKKPKTFHKNQRRVFRAPDLKGMLDMFRELTDARRYWVDVTLAPNNISHAVIAEDKRQVSSRNPQIMYGARGTRYTFQSFTNFNYCTGVLGSQSITSGKHYWEVDVSKKSAWILGVCAGFQSDAMYNIEQNENYQPKYGYWVIGLQEGVKYSVFQDGSSHTPFAPFIVPLSVIICPDRVGVFVDYEACTVSFFNITNHGFLIYKFSQCSFSKPVFPYLNPRKCTVPMTLCSPSS [rhesus TRIM5α, 332-344 = GARGTRYTFQSFT]” as the sequence, how does the enrichment read?
**A.** 1.5 ± 0.042

**Q.** How did the enrichment turn out when “MASGILLNVKEEVTCPICLELLTEPLSLHCGHSFCQACITANHKKSMLYKEGERSCPVCRISYQPENIQPNRHVANIVEKLREVKLSPEEGQKVDHCARHGEKLLLFCQEDSKVICWLCERSQEHRGHHTFLMEEVAQEYHVKLQTALEMLRQKQQEAEKLEADIREEKASWKIQIDYDKTNVSADFEQLREILDWEESNELQNLEKEEEDILKSLTKSETEMVQQTQYMRELISELEHRLQGSMMDLLQGVDGIIKRIENMTLKKPKTFHKNQRRVFRAPDLKGMLDMFRELTDARRYWVDVTLAPNNISHAVIAEDKRQVSSRNPQIMYGARGTLFTFPTLVNFNYCTGVLGSQSITSGKHYWEVDVSKKSAWILGVCAGFQSDAMYNIEQNENYQPKYGYWVIGLQEGVKYSVFQDGSSHTPFAPFIVPLSVIICPDRVGVFVDYEACTVSFFNITNHGFLIYKFSQCSFSKPVFPYLNPRKCTVPMTLCSPSS [rhesus TRIM5α, 332-344 = GARGTLFTFPTLV]” was run?
**A.** 1.74 ± 1.1

**Q.** “MASGILLNVKEEVTCPICLELLTEPLSLHCGHSFCQACITANHKKSMLYKEGERSCPVCRISYQPENIQPNRHVANIVEKLREVKLSPEEGQKVDHCARHGEKLLLFCQEDSKVICWLCERSQEHRGHHTFLMEEVAQEYHVKLQTALEMLRQKQQEAEKLEADIREEKASWKIQIDYDKTNVSADFEQLREILDWEESNELQNLEKEEEDILKSLTKSETEMVQQTQYMRELISELEHRLQGSMMDLLQGVDGIIKRIENMTLKKPKTFHKNQRRVFRAPDLKGMLDMFRELTDARRYWVDVTLAPNNISHAVIAEDKRQVSSRNPQIMYQARGTRYPSLTNFNYCTGVLGSQSITSGKHYWEVDVSKKSAWILGVCAGFQSDAMYNIEQNENYQPKYGYWVIGLQEGVKYSVFQDGSSHTPFAPFIVPLSVIICPDRVGVFVDYEACTVSFFNITNHGFLIYKFSQCSFSKPVFPYLNPRKCTVPMTLCSPSS [rhesus TRIM5α, 332-344 = QARGTRYPSLT]” was tested. Which enrichment did it give?
**A.** 0.29 ± 0.17

**Q.** Which enrichment does the source give for “MASGILLNVKEEVTCPICLELLTEPLSLHCGHSFCQACITANHKKSMLYKEGERSCPVCRISYQPENIQPNRHVANIVEKLREVKLSPEEGQKVDHCARHGEKLLLFCQEDSKVICWLCERSQEHRGHHTFLMEEVAQEYHVKLQTALEMLRQKQQEAEKLEADIREEKASWKIQIDYDKTNVSADFEQLREILDWEESNELQNLEKEEEDILKSLTKSETEMVQQTQYMRELISELEHRLQGSMMDLLQGVDGIIKRIENMTLKKPKTFHKNQRRVFRAPDLKGMLDMFRELTDARRYWVDVTLAPNNISHAVIAEDKRQVSSRNPQIMYQARGTLYQSLTNFNYCTGVLGSQSITSGKHYWEVDVSKKSAWILGVCAGFQSDAMYNIEQNENYQPKYGYWVIGLQEGVKYSVFQDGSSHTPFAPFIVPLSVIICPDRVGVFVDYEACTVSFFNITNHGFLIYKFSQCSFSKPVFPYLNPRKCTVPMTLCSPSS [rhesus TRIM5α, 332-344 = QARGTLYQSLT]” here?
**A.** 0.225 ± 0.13

**Q.** How did the enrichment turn out when “MASGILLNVKEEVTCPICLELLTEPLSLHCGHSFCQACITANHKKSMLYKEGERSCPVCRISYQPENIQPNRHVANIVEKLREVKLSPEEGQKVDHCARHGEKLLLFCQEDSKVICWLCERSQEHRGHHTFLMEEVAQEYHVKLQTALEMLRQKQQEAEKLEADIREEKASWKIQIDYDKTNVSADFEQLREILDWEESNELQNLEKEEEDILKSLTKSETEMVQQTQYMRELISELEHRLQGSMMDLLQGVDGIIKRIENMTLKKPKTFHKNQRRVFRAPDLKGMLDMFRELTDARRYWVDVTLAPNNISHAVIAEDKRQVSSRNPQIMYGARGTRFTFQTFTNFNYCTGVLGSQSITSGKHYWEVDVSKKSAWILGVCAGFQSDAMYNIEQNENYQPKYGYWVIGLQEGVKYSVFQDGSSHTPFAPFIVPLSVIICPDRVGVFVDYEACTVSFFNITNHGFLIYKFSQCSFSKPVFPYLNPRKCTVPMTLCSPSS [rhesus TRIM5α, 332-344 = GARGTRFTFQTFT]” was run?
**A.** 1.31 ± 0.2

**Q.** Which enrichment does the source give for “MASGILLNVKEEVTCPICLELLTEPLSLHCGHSFCQACITANHKKSMLYKEGERSCPVCRISYQPENIQPNRHVANIVEKLREVKLSPEEGQKVDHCARHGEKLLLFCQEDSKVICWLCERSQEHRGHHTFLMEEVAQEYHVKLQTALEMLRQKQQEAEKLEADIREEKASWKIQIDYDKTNVSADFEQLREILDWEESNELQNLEKEEEDILKSLTKSETEMVQQTQYMRELISELEHRLQGSMMDLLQGVDGIIKRIENMTLKKPKTFHKNQRRVFRAPDLKGMLDMFRELTDARRYWVDVTLAPNNISHAVIAEDKRQVSSRNPQIMYQAPGTRYTFPSFTNFNYCTGVLGSQSITSGKHYWEVDVSKKSAWILGVCAGFQSDAMYNIEQNENYQPKYGYWVIGLQEGVKYSVFQDGSSHTPFAPFIVPLSVIICPDRVGVFVDYEACTVSFFNITNHGFLIYKFSQCSFSKPVFPYLNPRKCTVPMTLCSPSS [rhesus TRIM5α, 332-344 = QAPGTRYTFPSFT]” here?
**A.** 0.977 ± 0.45

**Q.** For “MASGILLNVKEEVTCPICLELLTEPLSLHCGHSFCQACITANHKKSMLYKEGERSCPVCRISYQPENIQPNRHVANIVEKLREVKLSPEEGQKVDHCARHGEKLLLFCQEDSKVICWLCERSQEHRGHHTFLMEEVAQEYHVKLQTALEMLRQKQQEAEKLEADIREEKASWKIQIDYDKTNVSADFEQLREILDWEESNELQNLEKEEEDILKSLTKSETEMVQQTQYMRELISELEHRLQGSMMDLLQGVDGIIKRIENMTLKKPKTFHKNQRRVFRAPDLKGMLDMFRELTDARRYWVDVTLAPNNISHAVIAEDKRQVSSRNPQIMYQARGTRYTFPTLTNFNYCTGVLGSQSITSGKHYWEVDVSKKSAWILGVCAGFQSDAMYNIEQNENYQPKYGYWVIGLQEGVKYSVFQDGSSHTPFAPFIVPLSVIICPDRVGVFVDYEACTVSFFNITNHGFLIYKFSQCSFSKPVFPYLNPRKCTVPMTLCSPSS [rhesus TRIM5α, 332-344 = QARGTRYTFPTLT]”, which enrichment is on record?
**A.** 0.838 ± 0.43

**Q.** Which enrichment does the source give for “MASGILLNVKEEVTCPICLELLTEPLSLHCGHSFCQACITANHKKSMLYKEGERSCPVCRISYQPENIQPNRHVANIVEKLREVKLSPEEGQKVDHCARHGEKLLLFCQEDSKVICWLCERSQEHRGHHTFLMEEVAQEYHVKLQTALEMLRQKQQEAEKLEADIREEKASWKIQIDYDKTNVSADFEQLREILDWEESNELQNLEKEEEDILKSLTKSETEMVQQTQYMRELISELEHRLQGSMMDLLQGVDGIIKRIENMTLKKPKTFHKNQRRVFRAPDLKGMLDMFRELTDARRYWVDVTLAPNNISHAVIAEDKRQVSSRNPQIMYQARGTLFPSLTNFNYCTGVLGSQSITSGKHYWEVDVSKKSAWILGVCAGFQSDAMYNIEQNENYQPKYGYWVIGLQEGVKYSVFQDGSSHTPFAPFIVPLSVIICPDRVGVFVDYEACTVSFFNITNHGFLIYKFSQCSFSKPVFPYLNPRKCTVPMTLCSPSS [rhesus TRIM5α, 332-344 = QARGTLFPSLT]” here?
**A.** 1.87 ± 1.6

**Q.** With “MASGILLNVKEEVTCPICLELLTEPLSLHCGHSFCQACITANHKKSMLYKEGERSCPVCRISYQPENIQPNRHVANIVEKLREVKLSPEEGQKVDHCARHGEKLLLFCQEDSKVICWLCERSQEHRGHHTFLMEEVAQEYHVKLQTALEMLRQKQQEAEKLEADIREEKASWKIQIDYDKTNVSADFEQLREILDWEESNELQNLEKEEEDILKSLTKSETEMVQQTQYMRELISELEHRLQGSMMDLLQGVDGIIKRIENMTLKKPKTFHKNQRRVFRAPDLKGMLDMFRELTDARRYWVDVTLAPNNISHAVIAEDKRQVSSRNPQIMYQAPGTRYTFQTFVNFNYCTGVLGSQSITSGKHYWEVDVSKKSAWILGVCAGFQSDAMYNIEQNENYQPKYGYWVIGLQEGVKYSVFQDGSSHTPFAPFIVPLSVIICPDRVGVFVDYEACTVSFFNITNHGFLIYKFSQCSFSKPVFPYLNPRKCTVPMTLCSPSS [rhesus TRIM5α, 332-344 = QAPGTRYTFQTFV]” as the sequence, how does the enrichment read?
**A.** 8.93 ± 11

**Q.** Which enrichment does the source give for “MASGILLNVKEEVTCPICLELLTEPLSLHCGHSFCQACITANHKKSMLYKEGERSCPVCRISYQPENIQPNRHVANIVEKLREVKLSPEEGQKVDHCARHGEKLLLFCQEDSKVICWLCERSQEHRGHHTFLMEEVAQEYHVKLQTALEMLRQKQQEAEKLEADIREEKASWKIQIDYDKTNVSADFEQLREILDWEESNELQNLEKEEEDILKSLTKSETEMVQQTQYMRELISELEHRLQGSMMDLLQGVDGIIKRIENMTLKKPKTFHKNQRRVFRAPDLKGMLDMFRELTDARRYWVDVTLAPNNISHAVIAEDKRQVSSRNPQIMYQARGTLYPSLTNFNYCTGVLGSQSITSGKHYWEVDVSKKSAWILGVCAGFQSDAMYNIEQNENYQPKYGYWVIGLQEGVKYSVFQDGSSHTPFAPFIVPLSVIICPDRVGVFVDYEACTVSFFNITNHGFLIYKFSQCSFSKPVFPYLNPRKCTVPMTLCSPSS [rhesus TRIM5α, 332-344 = QARGTLYPSLT]” here?
**A.** 2.61 ± 3.7

**Q.** Which enrichment does the source give for “MASGILLNVKEEVTCPICLELLTEPLSLHCGHSFCQACITANHKKSMLYKEGERSCPVCRISYQPENIQPNRHVANIVEKLREVKLSPEEGQKVDHCARHGEKLLLFCQEDSKVICWLCERSQEHRGHHTFLMEEVAQEYHVKLQTALEMLRQKQQEAEKLEADIREEKASWKIQIDYDKTNVSADFEQLREILDWEESNELQNLEKEEEDILKSLTKSETEMVQQTQYMRELISELEHRLQGSMMDLLQGVDGIIKRIENMTLKKPKTFHKNQRRVFRAPDLKGMLDMFRELTDARRYWVDVTLAPNNISHAVIAEDKRQVSSRNPQIMYQARGTRFTFQTLTNFNYCTGVLGSQSITSGKHYWEVDVSKKSAWILGVCAGFQSDAMYNIEQNENYQPKYGYWVIGLQEGVKYSVFQDGSSHTPFAPFIVPLSVIICPDRVGVFVDYEACTVSFFNITNHGFLIYKFSQCSFSKPVFPYLNPRKCTVPMTLCSPSS [rhesus TRIM5α, 332-344 = QARGTRFTFQTLT]” here?
**A.** 0.918 ± 0.19
